The text below walks through data of publication PMC5515408.

The other results are listed elsewhere or left out. At the low end of the ranking, values are background and their order means little.

The test system of the test is MYC (p64) + MAX (p21), in MYC:MAX. The test is described as follows: protein-binding microarray (anti-MAX antibody). As to conditions: PBM: 15 mM Tris-HCl pH 7.5, 100 mM KCl, 0.075% NP40, 7.5 mM beta-mercaptoethanol, 375 ng/ul BSA, 8 ng/ul poly(dA-dT):(dA-dT), 550 ng complex, 60 min, room …; high values mean tight binding; double strand, one strand shown; sequences stand for … in CCGGC…TTAATAGCTAAGATTACTATATCGACG
As for TGATCCACGGTA, the binding signal (log2 normalized fluorescence) came to 0.285. The result for TGACACGTCCCA reads 0.378; that for TGAGGTTACGTA, 0.0304. The result for TCCCACGTAGTA reads 0.395; that for TGAAGCGTCGTA, 0.000584. The result for TGAAAGTCGGTA reads -0.126. With TGACAGATCGTA, the binding signal (log2 normalized fluorescence) came to 0.088. The figure for TGACGGTAAGTA is -0.0614; for TGAGCCGTAGTA it is -0.128. The figure for TGAGAGTGGGTA is -0.0178; for TGATACCATGTA it is 0.254.

As to TGAGGCCGCGTA, the binding signal (log2 normalized fluorescence) is -0.0656. As for TGATGGATTGTA, the binding signal (log2 normalized fluorescence) worked out at 0.0859.

For the sequence TGAAGTAAGGTA, the binding signal (log2 normalized fluorescence) was 0.172. The figure for TGATCCGTAGTA is -0.344; for TGATAACGCGTA it is 0.115; for AGACACGTGGTG it is 0.826. The result for TGAGCCTAAGTA reads -0.155; that for TAAAACGTGGTA, 0.688. For the sequence TGATTCCAAGTA, the binding signal (log2 normalized fluorescence) was -0.0353. The result for TGAGCAACAGTA reads 0.0569; that for TGACACGTGAGT, 0.793. The figure for TGAACTGCTGTA is 0.121; for TGACCATGTGTA it is 0.599. The result for TGAACTGTGGTA reads 0.105.

Regarding TGACGGGGGGTA, the binding signal (log2 normalized fluorescence) stood at 0.672.

As for TGATACCGGGTA, the binding signal (log2 normalized fluorescence) was -0.2. The figure for TGATGGGGTGTA is 0.289; for TGAACGACAGTA it is 0.294. On to TGACGAAGGGTA, for which the binding signal (log2 normalized fluorescence) was -0.0371. The figure for TGAACCAAAGTA is -0.0967; for TGAGAAGCCGTA it is -0.0901. As to GGACACGTGCTA, the binding signal (log2 normalized fluorescence) was 0.839. Take TGAGAACGAGTA: the binding signal (log2 normalized fluorescence) worked out at 0.146. As to TGACCATGGGTA, the binding signal (log2 normalized fluorescence) amounted to 0.0886. The figure for TGCCACGTAGTG is 0.23. Take TGAGTGACCGTA: the binding signal (log2 normalized fluorescence) is 0.0161.

As to TGACCTTTCGTA, the binding signal (log2 normalized fluorescence) is 0.124. The result for TGACACGTGACA reads 0.756; that for TGACACGTGACC, 0.633.

Take TCTCACGTCGTA: the binding signal (log2 normalized fluorescence) is 0.292.

Consider TGATAACCGGTA, for which the binding signal (log2 normalized fluorescence) was found to be 0.0563. The figure for TGACATAGTGTA is 0.159; for TGAGCCCACGTA it is 0.444; for TGAATCCTTGTA it is 0.0329.

In the case of TGAGAGGATGTA, the binding signal (log2 normalized fluorescence) is 0.0117. The result for TGATGTTTAGTA reads 0.176; that for TGAAGGACCGTA, 0.0673. The figure for TGACACGCGGGA is 0.436; for TGAAACGTAGTA it is 0.0734; for TGAAAATAGGTA it is -0.106. For the sequence TGAGAACTAGTA, the binding signal (log2 normalized fluorescence) was -0.0292. The result for TGACCGACGGTA reads -0.0377; that for TGATCCATCGTA, 0.113. The result for TGACTCTCCGTA reads -0.0102; that for TGAAGGTAGGTA, 0.103; that for TGAAACTCTGTA, 0.0158.

As to TGACCCTTGATA, the binding signal (log2 normalized fluorescence) is 0.0562. Consider TGATTCTACGTA, for which the binding signal (log2 normalized fluorescence) is -0.109. On to TGAATGTTCGTA, for which the binding signal (log2 normalized fluorescence) is 0.267. With TGACTAACGGTA, the binding signal (log2 normalized fluorescence) worked out at 0.156. The result for TGAATGAGTGTA reads 0.179; that for TGATTCGCCGTA, -0.0508; that for TGAATCCGAGTA, -0.0269. The result for TGACCTCAAGTA reads 0.278.

As to TGACACCTGAGA, the binding signal (log2 normalized fluorescence) was 0.302. As for TGATAGTGAGTA, the binding signal (log2 normalized fluorescence) was found to be 0.0151. The result for TGAGCATCTGTA reads 0.0726. TGACAGTGCGTA: the binding signal (log2 normalized fluorescence) was 0.233. The figure for TGATTGCCAGTA is -0.173. The figure for TGACGACGCGTA is 0.424; for TGAGACCTAGTA it is 0.0908; for TGACGGTTTGTA it is -0.123. The result for TGAAGGCTAGTA reads -0.0941; that for TGAAGTCGAGTA, -0.0181. On to TGAGAGGCAGTA, for which the binding signal (log2 normalized fluorescence) was -0.0652. The figure for TGACACGTGGCC is 0.897; for TGACCGGTGCTA it is 0.151; for TGACGAAGCGTA it is 0.0775. The figure for TGAAAGATAGTA is -0.00687.

Regarding TGAGGTTTCGTA, the binding signal (log2 normalized fluorescence) is -0.145. With TGACTCCGTGTA, the binding signal (log2 normalized fluorescence) is 0.183. The result for TCACACATGCTA reads 0.767. The result for TGATGGCCAGTA reads 0.128; that for GCCGATTACCCT, -0.0941. The figure for TGACACGTATTA is 0.347; for TGATAAGATGTA it is -0.0494. Regarding TGAATCCACGTA, the binding signal (log2 normalized fluorescence) is 0.325. The figure for TGACGCTGTGTA is 0.122. The figure for TGATCCGCTGTA is -0.0182; for TTACACGTGGTA it is 0.847; for TGATTTCAGGTA it is -0.268. The result for TGTTACGTGGTA reads 0.418; that for TGAGCCCGAGTA, -0.203; that for TGACATGTGATA, 0.694. Regarding TGATGAGCAGTA, the binding signal (log2 normalized fluorescence) is -0.0208. The figure for TGATATATCGTA is 0.0668; for TGACGCCAGGTA it is 0.186; for TGAGCCTCGGTA it is 0.114.

TGTCACCTTGTA: the binding signal (log2 normalized fluorescence) is 0.395. The result for TGACTCAGCGTA reads 0.0353; that for TGAAGAAAAGTA, -0.132; that for TGATCGTGTGTA, 0.406.

As for TGACCACATGTA, the binding signal (log2 normalized fluorescence) came to 0.581. As to TGATACCACGTA, the binding signal (log2 normalized fluorescence) was 0.299. Consider TGACTAGCAGTA, for which the binding signal (log2 normalized fluorescence) was -0.0743. The figure for TGATAGGTTGTA is -0.209; for TGAAATTTTGTA it is -0.246. Consider TGAATAAGCGTA, for which the binding signal (log2 normalized fluorescence) was -0.00477. As to TGAAACGTGGTA, the binding signal (log2 normalized fluorescence) was determined as 0.637. The result for TGACACGTTGAA reads 0.44.

Regarding TGACCAAACGTA, the binding signal (log2 normalized fluorescence) turned out to be 0.237. The figure for TGAACCGTGGTA is 0.207; for TGAGACTGGGTA it is -0.103. The result for TGAAGGTCGGTA reads -0.0977; that for TGAGCACAGGTA, 0.141. The figure for TGAGCTTGGGTA is -0.149. TGATCGCACGTA: the binding signal (log2 normalized fluorescence) was found to be 0.115. TGAATCGTTGTA: the binding signal (log2 normalized fluorescence) amounted to 0.13. The figure for TGACGGCTTGTA is -0.0228; for TGACCTCTCGTA it is 0.0599; for ACTATCTTTGTT it is 0.032. TGATTCGAGGTA: the binding signal (log2 normalized fluorescence) is -0.0274. The figure for TGAGTTTCCGTA is -0.0243.

Turning to TGAAGAGCTGTA, the binding signal (log2 normalized fluorescence) worked out at 0.00393. The figure for TGAGACTTAGTA is -0.116; for TGAGGGTTCGTA it is -0.0138; for TGAGTACGTGTA it is 0.0477. The figure for TGAAGCGACGTA is 0.0624. The result for TGAAACACCGTA reads 0.333. As to TGAAGGTCAGTA, the binding signal (log2 normalized fluorescence) is 0.0356. TGATCGTCGGTA: the binding signal (log2 normalized fluorescence) was -0.0726. Take TGATGAGATGTA: the binding signal (log2 normalized fluorescence) was found to be 0.0453. Turning to TGACACGTAATA, the binding signal (log2 normalized fluorescence) was found to be 0.279. The figure for TGAGCATCCGTA is 0.0794. The result for TGAAGCCCTGTA reads -0.014; that for TGAATCGTCGTA, 0.00644; that for ACTCACGTGGTA, 0.862.
